# In PMC4336329 (PLoS ONE, 2015):
# The campaign covered roughly 310,000 compounds. About 2,200 (0.71%) showed an effect of 50% or more. The effect is printed as a negative number. Some of the results follow.
# Biological target: human ether-à-go-go-related gene (hERG) potassium channel (human, UniProt Q12809)
# Assay: primary screen, population patch clamp on CHO cells stably expressing hERG
# Sequence of human ether-à-go-go-related gene (hERG) potassium channel (Q12809 whole entry, looked up): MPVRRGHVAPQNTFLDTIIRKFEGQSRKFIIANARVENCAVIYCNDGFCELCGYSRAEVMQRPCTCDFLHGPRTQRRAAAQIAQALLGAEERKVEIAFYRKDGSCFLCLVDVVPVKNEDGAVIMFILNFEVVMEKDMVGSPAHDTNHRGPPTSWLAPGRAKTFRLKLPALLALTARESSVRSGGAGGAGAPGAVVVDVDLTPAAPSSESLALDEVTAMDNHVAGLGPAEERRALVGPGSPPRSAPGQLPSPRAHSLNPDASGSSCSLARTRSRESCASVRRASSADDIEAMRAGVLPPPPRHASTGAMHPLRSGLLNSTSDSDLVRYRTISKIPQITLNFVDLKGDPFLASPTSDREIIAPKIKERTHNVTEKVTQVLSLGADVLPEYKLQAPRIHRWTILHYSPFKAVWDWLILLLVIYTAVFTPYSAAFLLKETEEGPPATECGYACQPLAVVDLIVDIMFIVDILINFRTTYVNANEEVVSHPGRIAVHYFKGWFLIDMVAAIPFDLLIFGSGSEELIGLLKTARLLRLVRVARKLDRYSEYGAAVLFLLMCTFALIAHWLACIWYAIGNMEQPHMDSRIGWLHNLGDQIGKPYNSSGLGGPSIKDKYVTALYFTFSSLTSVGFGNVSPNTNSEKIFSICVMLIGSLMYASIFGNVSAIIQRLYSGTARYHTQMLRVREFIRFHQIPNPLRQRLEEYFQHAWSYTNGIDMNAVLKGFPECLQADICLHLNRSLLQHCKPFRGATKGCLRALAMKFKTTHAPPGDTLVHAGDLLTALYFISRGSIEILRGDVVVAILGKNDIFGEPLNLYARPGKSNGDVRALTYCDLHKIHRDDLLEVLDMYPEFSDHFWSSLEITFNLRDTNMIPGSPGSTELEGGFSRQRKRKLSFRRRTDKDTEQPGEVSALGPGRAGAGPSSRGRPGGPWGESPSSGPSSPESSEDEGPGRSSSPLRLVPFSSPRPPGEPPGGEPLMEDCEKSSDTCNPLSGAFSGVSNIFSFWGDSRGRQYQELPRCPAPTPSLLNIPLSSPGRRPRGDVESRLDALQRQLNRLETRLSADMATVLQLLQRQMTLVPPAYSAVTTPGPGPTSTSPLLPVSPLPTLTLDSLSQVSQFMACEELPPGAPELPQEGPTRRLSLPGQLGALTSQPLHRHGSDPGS
row,Structure (SMILES),"hERG current change (%, negative = inhibition) at 1uM [%]"
1,CCc1cccc(NS(=O)(=O)c2c(C)nc3sc(CC)nn3c2=O)c1,0.621
2,C=CCNC(=O)c1onc(CSc2cc(C)ccc2C)c1C(=O)O,4.72
3,O=C(NCCNc1ccc([N+](=O)[O-])cc1)c1ccc(Cl)cc1,-9.29
4,Cc1c(C)n(C)c2ccc(C(=O)NCCCN3CCN(C)CC3)cc12,17.3
5,Clc1cccc(/C=N/Nc2nnc(Cl)c3ccccc23)c1,5.24
6,CCOC(=O)C1(c2ccccc2)CCN(CC(=O)Nc2ccc(C)cc2)CC1,12.1
7,O=C(O)C[C@H]1c2cc(C(F)(F)F)ccc2S(=O)(=O)N1Cc1ccccc1,13.1
8,COc1cc(CN2CCC(C(=O)N3CCN(c4ccccc4F)CC3)CC2)ccc1O.O=C(O)C(=O)O,-2.09
9,COc1ccc(/C=C/C(=O)O)cc1S(=O)(=O)NC1CCS(=O)(=O)C1 (stereo not shown),7.36
10,O=C(Nc1cccc(-n2cnnn2)c1)c1ccc(C(F)(F)F)cc1,1.36
11,CC(C)Oc1ccc(C(=O)NC2=NCCS2)cc1,10.6
12,Cc1ccc(CN2CCNC(=O)C2CC(=O)N(C)Cc2cnccn2)cc1 (stereo not shown),8.07
13,CCC(CC)C(=O)OCC(=O)NC12CC3CC(CC(C3)C1)C2,2.99
14,CS(=O)(=O)N(CC(=O)NCCSCc1ccccc1Cl)c1ccc(F)cc1,0.996
15,CNc1c([N+](=O)[O-])cnn1-c1ccccn1,2.65
16,O=C(NC1CCN(Cc2ccccc2)CC1)c1cccc(S(=O)(=O)Nc2ccc(F)cc2)c1,-6.23
17,Cl.O=C(CCN1CCCCCC1)Nc1cccc(F)c1,-4.99
18,Cc1ccc2c(c1)C1(OCCCO1)C(=O)N2CC(=O)NN,11.6
19,COc1ccc(C(CNC(=O)c2ccc(S(=O)(=O)N(C)C)cc2)N(C)C)cc1 (stereo not shown),20.2
20,Cc1ccc(NC(=O)CC2(CC(=O)O)CCCC2)c(C)c1,14.1

row,Structure (SMILES),"hERG current change (%, negative = inhibition) at 1uM [%]"
1,Cl.Clc1cccc(Cl)c1NC1=NCCN1,10.6
2,COc1cc(C)c(N(C(C)=O)c2ccccc2)c(C)c1,5.85
3,CCCN1C(=O)c2ccc(C(=O)Nc3ccc4c(c3)OCO4)cc2C1=O,6.9
4,CCNC(=S)N(CCc1c(C)[nH]c2ccccc12)Cc1cccnc1,0.0608
5,CCCc1nc2c(sc3nc4c(cc32)COC(C)(C)C4)c(=O)n1CCN(C)C,4.67
6,COc1ccc(-n2c(N)c(C(=O)NCC3CCCO3)c3nc4ccccc4nc32)c(OC)c1 (stereo not shown),14.1
7,CC(C)(C)n1[nH]c2c3c(ccc2c1=O)C(=O)c1ccccc1C3=O,11.3
8,CC1=NCC(C)c2c1[nH]c1ccccc21 (stereo not shown),3.58
9,Cc1cccc(C)c1N1C(=O)CC(N(O)c2ccccc2)C1=O (stereo not shown),20.5
10,COc1ccc(C)cc1NC(=O)C1CCCN(S(=O)(=O)c2cccc3cccnc23)C1 (stereo not shown),7.19
11,Cn1c(CNC(=O)c2ccco2)nnc1SCC(=O)N1c2ccccc2Sc2ccccc21,6.73
12,Cc1ccc(NC(=O)c2ccc3[nH]c(=O)c(=O)[nH]c3c2)nc1,-5.13
13,O=C(Nc1ccnn1C1CCN(C(=O)c2ccc(Cl)c(F)c2)CC1)C1CCOC1 (stereo not shown),9.51
14,CC1=NN(c2cccc(C(=O)O)c2)C(=O)/C1=C\C=C\c1ccco1,5.51
15,Cn1cnnc1SCC(=O)Nc1ccccc1F,92.3
16,Br.N=C(N)SCc1ccc(Cl)cc1Cl,-9.46
17,COc1ccc(NC(=O)c2c(NC(=O)CNCC(C)C)sc3c2CCC3)c(OC)c1,15.5
18,O=C(c1ccco1)N1CCN(S(=O)(=O)c2ccc(Cl)cc2)CC1,12
19,CC(C)(C)c1ccc(SCCc2cccnc2)cc1,10.6
20,COC(=O)CNC(=O)CNC(=O)Nc1ccccc1Cl,10.6

row,Structure (SMILES),"hERG current change (%, negative = inhibition) at 1uM [%]"
1,COCCNC(=O)c1ccc(S(=O)(=O)N2CCCc3ccccc32)cc1,13.9
2,OCc1c(Cl)nc2ccccn12,5.47
3,O=C1N/C(=N/N=C/c2ccc(O)cc2)SC1Cc1ccccc1 (stereo not shown),-0.776
4,Cc1ccc(NC(=S)NN2CCN(C)CC2)c(C)c1,15.4
5,CCOC(=O)C(C)Sc1nc2c(cnn2-c2ccc(F)cc2)c(=O)[nH]1 (stereo not shown),12.9
6,COCCN1CCN(C(=O)c2cc(COc3ccc(F)cc3Cl)on2)CC1,7.83
7,CCOC(=O)c1sc(=S)n(C)c1NC(=O)c1ccc(C(C)(C)C)cc1,9.13
8,COc1ccc([N+](=O)[O-])cc1/C=N/NC(=O)CNC(=O)c1cccc(F)c1,1.34
9,CCN1CCCc2cc(CN(CCN3CCOCC3)C(=S)Nc3ccc(C)cc3)ccc21,5.31
10,O=C(COc1ccc(-n2cnnn2)cc1)NC1CCCCC1,-6.68
11,COc1ccc(CN(CC2CCC(C(=O)O)CC2)C(=S)Nc2ccccc2C)cc1 (stereo not shown),-1.85
12,O=C(O)C(=O)O.O=[N+]([O-])c1ccc(S(=O)(=O)N2CCN(Cc3ccco3)CC2)cc1,18.9
13,CC(=O)c1ccc(-c2ccccc2)cc1,13.4
14,Cc1ccc(-n2c(=O)c3sccc3n(Cc3cc(=O)n4cc(Cl)ccc4n3)c2=O)cc1F,-7.4
15,Cc1nnc(SCCC(=O)Nc2nc(-c3ccccc3)ns2)s1,0.311
16,CC(C)(C)c1cc(OC(=O)C2CCCC2)ccc1O,16
17,O=C(CN1N=C(C(F)(F)F)CC1(O)c1ccc([N+](=O)[O-])cc1)c1ccccc1 (stereo not shown),7.15
18,CCCc1cc(=O)[nH]c(SCc2ccc(C#N)cc2)n1,7.8
